Results taken from PubChem BioAssay AID588342 (National Center for Advancing Translational Sciences (NCATS), 2011).
Hit rate of the full screen: of about 360,000 compounds, about 25,000 (6.9%) were called active. The inconclusive results got no clear call from the source; some entries with a clear call stand among them for comparison. Calls come from the whole dose curve; as a rule, active = well fitted inhibition curve with a large enough effect; inconclusive = small, poorly fitted or top-dose-only effect; inactive = flat fitted curve, though single readings scatter. Potencies of inconclusive entries are doubtful fits and often do not repeat.

molecular target: Luciferin 4-monooxygenase (Photinus pyralis) (UniProt P08659); assay: qHTS profiling assay for firefly luciferase inhibitor/activator using purifed enzyme and Km concentrations of substrates (counterscreen for miR-21 project); details: purified FLuc, luminescence inhibition; activity change, negative = inhibition: at 57.5 µM (top of the series); note: nearly all actives have a fitted effect of over 55% in size;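 for activity change, negative = inhibition: plate controls were vehicle for no effect and reference inhibitor for full effect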
Summary of the method: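 Purified P. pyralis luciferase (10nM final) with 10uM D-luciferin and 10uM ATP (Km levels) in 50mM Tris acetate pH 7.5, 10mM Mg acetate, 0.01% Tween-20, 0.05% BSA; qHTS 6-point titration, ~60 µM downward; luminescence read.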
Potency is the fitted concentration of half-maximal effect; tags give direction and shape of the fitted curve.

Chain of UniProt P08659 (P08659 whole entry, looked up): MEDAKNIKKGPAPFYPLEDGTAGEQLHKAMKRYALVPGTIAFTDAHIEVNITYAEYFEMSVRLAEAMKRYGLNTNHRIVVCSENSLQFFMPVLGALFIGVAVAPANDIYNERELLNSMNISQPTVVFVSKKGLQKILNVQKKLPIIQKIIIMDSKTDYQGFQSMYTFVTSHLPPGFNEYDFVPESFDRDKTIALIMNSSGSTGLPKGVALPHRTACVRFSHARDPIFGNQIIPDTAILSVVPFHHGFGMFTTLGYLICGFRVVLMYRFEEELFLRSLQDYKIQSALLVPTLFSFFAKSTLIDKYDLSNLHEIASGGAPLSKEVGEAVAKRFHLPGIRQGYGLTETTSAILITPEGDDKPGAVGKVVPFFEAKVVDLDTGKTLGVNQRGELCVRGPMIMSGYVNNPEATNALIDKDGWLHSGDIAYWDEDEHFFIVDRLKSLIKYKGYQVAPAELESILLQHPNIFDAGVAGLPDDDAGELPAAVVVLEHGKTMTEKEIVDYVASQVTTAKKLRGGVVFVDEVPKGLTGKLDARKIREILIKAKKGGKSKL

SMILES | Potency | activity change, negative = inhibition
Fc1ccccc1/C=N/Nc1ncnc2nc[nH]c12 | inconclusive: 23.9 µM [inhibitor, single point] | –
COCC(=O)n1nc(-c2ccccc2)nc1NCc1cccs1 | inconclusive: 37.9 µM [inhibitor, partial curve, poor fit] | –
C=CCc1cccc2cc(C(=O)NC3CCCC3)c(=O)oc12 | inconclusive: 23.9 µM [inhibitor, partial curve, poor fit] | –
O=C(NCc1ccccc1)c1ccc(-c2ccc(F)cc2)o1 | inconclusive: 37.9 µM [inhibitor, single point] | –
O=C(CS(=O)(=O)c1ccccc1)N1CCCCCC1 | inconclusive: 23.9 µM [inhibitor, partial curve, poor fit] | –
CC(C(=O)NC1CCS(=O)(=O)C1)N1C(=O)/C(=C/c2ccc(Cl)cc2)SC1=S (stereo not given) | inconclusive: 37.9 µM [inhibitor, single point] | –
O=C(CCC(=O)c1cccs1)NC1CCCCCC1 | inconclusive: 37.9 µM [inhibitor, single point] | –
O=C(Nn1c(O)c(C=C2N=c3ccccc3=N2)sc1=S)c1ccc(Cl)cc1 | inconclusive: 30.1 µM [inhibitor, single point] | –
CC(C)(C)c1cc(N2CCOCC2)n2ncc(-c3ccc(Cl)cc3)c2n1 | inconclusive: 37.9 µM [inhibitor, single point] | –
Cc1cc(C)c(S(=O)(=O)Nc2ccc(-c3ccc(N4CCC(C)CC4)nn3)cc2)cc1C | inconclusive: 8.49 µM [inhibitor, partial curve] | –
Cc1ccc(NC(=O)COC(=O)CCC2CCCC2)c(Br)c1 | inconclusive: 21.3 µM [inhibitor, partial curve, poor fit] | –
C/C(=C\c1ccccc1)C1Nc2cccc3cccc(c23)N1 | inconclusive: 20 µM [inhibitor, partial curve, poor fit] | –
Cc1cccc(C)c1Nc1c(-c2ccccc2F)nc2cccc(C)n12 | – | inactive: 0.928%
O=C(c1cc2ccccc2oc1=O)N1CCN(c2ccc(N3CCOCC3)nn2)CC1 | inconclusive: 21.3 µM [inhibitor, partial curve] | –
COc1ccc(-c2cc(C(F)(F)F)c(C#N)c(SCC(=O)O)n2)cc1OC | – | inactive: 5.16%
Cc1cc(C)nc(/N=C(\N)Nc2ccc(-c3ccccc3)cc2)n1 | inconclusive: 37.9 µM [inhibitor, partial curve, poor fit] | –
Cc1ccccc1OCCn1c(=S)[nH]c2c(N)ncnc21 | inconclusive: 37.9 µM [inhibitor, partial curve, poor fit] | –
Clc1cccc2sc(N3CCCC3)nc12 | inconclusive: 16.9 µM [inhibitor, partial curve] | –
O=C(NCCCl)c1ccc(OCc2ccccc2)cc1Cl | inconclusive: 1.51 µM [inhibitor, full curve] | –
O=C(Nc1ccn(Cc2ccc(Cl)cc2)n1)c1ccccc1 | active: 10.7 µM | –
CC(C)(C)c1ccc(C(=O)OCCNC(=O)c2c(Cl)nc3ccccn23)cc1 | inconclusive: 30.1 µM [inhibitor, partial curve, poor fit] | –
C/C(=N\NC(=O)CSc1nc(C)cc(C)n1)c1ccc2c(c1)OCCO2 | inconclusive: 19 µM [inhibitor, partial curve] | –
CC1CCN(c2nc3ccccc3n2CC(=O)c2ccccc2)CC1 | – | inactive: 1.41%
Oc1nc(Nc2ccc(F)cc2)sc1/C=C1\C=Nc2ccccc21 | inconclusive: 26.9 µM [inhibitor, partial curve, poor fit] | –

SMILES | Potency | activity change, negative = inhibition
Cc1cc(=O)n2[nH]c(SCc3ccccc3Cl)nc2n1 | inconclusive: 33.8 µM [inhibitor, single point] | –
O=C1c2cccc(OCc3ccc(F)cc3)c2CCN1Cc1ccc(F)cc1 | – | inactive: -0.254%
Cc1cccc(N2C(=O)N(CC(=O)C(C)(C)C)c3ccccc3S2(=O)=O)c1C | – | inactive: 0.0964%
CC(C)(CNC(=O)c1cc(-c2ccc(Cl)s2)nc2ccccc12)N1CCOCC1 | inconclusive: 23.9 µM [inhibitor, single point] | –
CCc1cc2c(=O)c(-c3nc4ccccc4[nH]3)coc2cc1OC(=O)N1CCOCC1 | inconclusive: 30.1 µM [inhibitor, partial curve, poor fit] | –
Cc1ccc(C)c(OCC(=O)NCCNC(=O)COc2cc(C)ccc2C)c1 | inconclusive: 8.49 µM [inhibitor, partial curve, poor fit] | –
O=C(N/N=C/c1c(O)n(-c2ccccc2Cl)c(=O)c2ccccc12)c1cccnc1 | inconclusive: 16.9 µM [inhibitor, partial curve] | –
COc1ccc(CCC(=O)OCC(=O)c2ccc(C)cc2)cc1 | inconclusive: 26.9 µM [inhibitor, single point] | –
COc1cccc(NC(=O)NCCCSC2CCCCC2)c1 | inconclusive: 37.9 µM [inhibitor, partial curve, poor fit] | –
Cc1cccc(-n2ncc(C(=O)N3CCN(c4ccc(Cl)cc4)CC3)c2C2CCN(C(=O)OC(C)(C)C)CC2)c1 | – | inactive: 6.74%
Cc1cc(C(=O)Nc2nc3c(s2)CCCC3)cs1 | active: 0.601 µM | –
COc1ccc2cc(C(=O)/C=C/c3cc(OC)c(OC)c(OC)c3)ccc2c1 | active: 21.3 µM | –
CCCc1ccc(C(=O)CCC(=O)NNC(=O)c2ccncc2)cc1 | inconclusive: 23.9 µM [inhibitor, single point] | –
COCCN1CCN(c2cc(-c3ccccc3)nc3cc(-c4cccc(F)c4)nn23)CC1 | – | inactive: 1.03%
CCOC(=O)c1ccc(OCCOc2ccccc2C)cc1 | inconclusive: 37.9 µM [inhibitor, single point] | –
c1cncc(-c2csc(-c3cccnc3)n2)c1 | inconclusive: 26.9 µM [inhibitor, single point] | –
NC(N)=NN=C1c2ccccc2-c2ccccc21 | inconclusive: 37.9 µM [inhibitor, partial curve, poor fit] | –
CC1CCC(NC(=O)Cn2c(=O)[nH]c3ccsc3c2=O)CC1 (stereo not given) | inconclusive: 23.9 µM [inhibitor, single point] | –
O=c1nccc(N/N=C/c2ccccc2O)[nH]1 | inconclusive: 21.3 µM [inhibitor, single point] | –
O=C(NCc1ccccc1)c1cc(-c2cccs2)on1 | inconclusive: 8.49 µM [inhibitor, partial curve, poor fit] | –
Cc1nnc(SCc2cnc(-c3ccc(C(C)C)cc3)s2)n1C | active: 0.301 µM | –
CCc1cccc(NC(=O)CN2C(=O)COc3ccc(S(=O)(=O)Nc4ccccc4)cc32)c1 | inconclusive: 15.1 µM [inhibitor, partial curve, poor fit] | –
COc1ccccc1NC(=O)C(C)OC(=O)/C=C/c1ccc2ccccc2n1 (stereo not given) | inconclusive: 23.9 µM [inhibitor, single point] | –
CCc1ccc(NC(=O)CS(=O)CC(=O)Nc2ccc(-n3cnnn3)c(C)c2)cc1 (stereo not given) | inconclusive: 23.9 µM [inhibitor, partial curve, poor fit] | –

SMILES | Potency | activity change, negative = inhibition
Cc1c(C(=O)OCCN2CCCCC2)oc2ccccc12 | active: 19 µM | –
COc1ccccc1N1CCN(c2ncnc3c2cnn3-c2cc(Cl)ccc2C)CC1 | – | inactive: 1.47%
COc1ccc(NC(=O)CSc2nc3[nH]c(=O)cc(O)c3s2)c(OC)c1 | – | inactive: 2.15%
CC1=NOC(=O)/C1=C\c1ccc2c(c1)OCO2 | inconclusive: 16.9 µM [inhibitor, partial curve] | –
COc1ccccc1Nc1cc(C(=O)NCCCN2CCOCC2)c2ccccc2n1 | inconclusive: 19 µM [inhibitor, partial curve] | –
CCCC(=O)Nc1ccc(-c2nc3ncccc3o2)cc1 | active: 13.5 µM | –
O=C(/C=C\c1ccc2c(c1)OCO2)CC1(O)C(=O)Nc2ccccc21 (stereo not given) | inconclusive: 26.9 µM [inhibitor, partial curve] | –
Cc1ccc(C(=O)N2c3ccc(C)cc3C(C)(c3ccccc3)CC2(C)C)cc1 (stereo not given) | – | inactive: -4.48%
COc1cc(OC)c(OC)cc1/C=C1/Cc2ccccc2C1=O | – | inactive: 5.47%
c1ccc(C(c2nnnn2C2CCCC2)N2CCN(c3ccccc3)CC2)cc1 (stereo not given) | inconclusive: 8.49 µM [inhibitor, partial curve, poor fit] | –
COc1ccc(-c2nn(-c3ccccc3)cc2N)cc1 | active: 10.7 µM | –
Cc1ccc(NC(=O)c2ccc(CSc3nnc(-c4ccncc4)n3C)cc2)cc1 | active: 1.9 µM | –
Cc1ccc2c(CC(=O)Nc3sccc3C(N)=O)coc2c1 | active: 10.7 µM | –
N=c1sccn1CC(=O)Nc1ccc([N+](=O)[O-])cc1Cl | – | inactive: -1.91%
O=C(Nc1ccc(OCc2ccccc2Cl)cc1)c1cccnc1 | inconclusive: 23.9 µM [inhibitor, single point] | –
O=C(NCc1ccc(F)cc1)NC(=O)c1ccc(Cl)cc1 | inconclusive: 26.9 µM [inhibitor, single point] | –
CCOc1ccc(NC(=O)CSC2=Nc3ccccc3C3=NC(CCC(=O)NCc4ccccc4)C(=O)N23)cc1 (stereo not given) | – | inactive: 5.09%
O=C(O)c1oc2ccccc2c1CSCc1ccccc1 | inconclusive: 16.9 µM [inhibitor, partial curve] | –
Cc1cccc(CN2CCC(CNC(=O)c3c(C)oc4ncnc(N5CCCCC5)c34)CC2)c1 | – | inactive: -0.84%
O=C(/C=C/c1ccccc1)NNc1ccc(Cl)cc1 | – | inactive: -8.21%
O=C1S/C(=C\c2ccc(N3CCOCC3)o2)C(=O)N1c1ccccc1 | inconclusive: 15.1 µM [inhibitor, partial curve] | –
CC1CCCN(C(=O)CSc2n[nH]c(-c3cccs3)n2)C1 (stereo not given) | inconclusive: 30.1 µM [inhibitor, partial curve, poor fit] | –
